# In the supplement of paper PMC12217912:
# The list shows a part of the results. Sequences were assembled here from the parent chain. Values near 0.05 are background.
# B1: TEV protease; numbered along this chain (parent)
# chain: MGESLFKGPRDYNPISSSICHLTNESDGHTTSLYGIGFGPFIITNKHLFRRNNGTLVVQSLHGVFKVKDTTTLQQHLVDGRDMIIIRMPKDFPPFPQKLKFREPQREERICLVTTNFQTKSMSSMVSDTSCTFPSGDGIFWKHWIQTKDGQCGSPLVSTRDGFIVGIHSASNFTNTNNYFTSVPKNFMELLTNQEAQQWVSGWRLNADSVLWGGHKVFMVKPEEPFQPVKEATQL
# Variants of: B1
# Experiment: raw area under fraction-flipped curve 0-4 h after induction (AUC4h, not background-subtracted), DNA-recorder readout of cleavage of the substrate (dimensionless); higher = more cleavage of the substrate by the protease variant
# Details: temperature: 34 °C; time window: 0-4 h after rhamnose induction
# Experimental: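 In vivo DNA recorder in E. coli TOP10(DE3) ΔrhaA at 34 °C. Each TEVp single-site mutant (parent TEVp 0) is paired with a single-site variant of the 7-mer TEVs (canonical ENLYFQ|S). The substrate sits between flexible linkers in a Bxb1-sfGFP-TEVs-SsrA fusion, so cleavage stabilises Bxb1 and speeds flipping of a recombination array, read by NGS. The value is the raw area under the fraction-flipped curve over 0-4 h after rhamnose induction (AUC4h), with ≥20 reads per time point. It is not background-subtracted; inactive controls average about 0.047.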
# 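Note: Bxb1 expression induced with 0.2% (w/v) L-rhamnose at OD600 near 0.5, cultures sampled hourly, flipped fraction per protease–substrate barcode pair counted by paired-end Illumina sequencing.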
Variant,area with substrate ECLYFQS,area with substrate EDLYFQS,area with substrate EELYFQS,area with substrate EFLYFQS,area with substrate EHLYFQS,area with substrate EILYFQS,area with substrate EQLYFQS,area with substrate ESLYFQS,area with substrate EVLYFQS,area with substrate EGLYFQS,area with substrate EKLYFQS,area with substrate EMLYFQS,area with substrate EPLYFQS,area with substrate ERLYFQS,area with substrate ETLYFQS,area with substrate ELLYFQS,area with substrate EYLYFQS,area with substrate EWLYFQS
A207H,0.0915,0.152,0.134,0.11,0.181,0.092,0.0064,0.102,0.0932,,,,,,,,,
M188A,0.0989,,0.128,,,0.0936,,0.108,0.0837,0.079,0.0936,0.0937,0.0985,0.12,0.141,,,
V165W,0.0504,0.0386,0.0729,,,,0.099,0.0408,0.0452,0.0637,0.0564,0.0619,0.0458,0.0516,,,,
V165Y,0.0544,0.0494,0.0581,,,0.0456,0.0526,0.0557,0.0609,,0.0493,0.0601,0.0538,0.0558,0.0569,,,
N177D,0.0874,0.0972,0.0903,,,0.0742,0.0783,0.0736,0.0955,0.116,0.0988,0.0819,,,0.0914,0.0758,0.0822,
G202T,0.086,0.077,0.0541,,0.0672,,0.0746,0.061,,0.0914,0.072,,,0.0638,0.054,0.0637,0.0672,
G162W,0.121,0.128,,,,0.0536,0.0977,0.0893,0.0723,0.0873,0.111,0.0843,0.102,0.0712,0.0762,,0.11,0.0616
G162K,0.103,0.0787,0.128,,0.101,,0.102,,0.0859,0.126,,,0.109,,,,,
G162I,0.0742,,,0.07,,,0.0751,0.0727,0.0802,0.0633,0.077,0.0664,,,,,,
W203I,0.0659,,0.0388,,,0.0533,0.0478,0.0541,0.073,0.0715,0.0687,0.0658,0.0514,0.0701,0.0679,,,
K185H,0.119,,0.155,,,,,0.112,0.0968,0.0869,,0.129,,0.0993,,,,
S135C,0.0932,0.0961,0.0846,0.0733,0.0663,0.0541,0.0858,0.0737,,0.0477,0.081,0.0859,,0.0499,,0.0846,0.0954,0.0617
N172T,0.0616,,0.0716,,,,,0.0482,,0.0597,,0.0939,0.0771,0.0702,0.078,,0.0658,
P134V,0.121,0.101,0.107,0.0913,0.0626,0.0649,0.0925,0.0651,,0.0728,,0.107,0.091,0.0436,,0.0856,,0.0818
W212L,0.122,0.137,0.183,,0.101,0.108,0.135,0.122,0.118,0.101,0.162,0.132,0.119,0.119,,0.0968,,0.0972
